In all, about 33,000 sequences were measured (“E-score (-0.5 to 0.5)”: median about -0.013, highest 2% from about 0.3 on). The list shows a part of the results.
Molecular target: T1, Msn1 (UniProt P22148)
T1 sequence: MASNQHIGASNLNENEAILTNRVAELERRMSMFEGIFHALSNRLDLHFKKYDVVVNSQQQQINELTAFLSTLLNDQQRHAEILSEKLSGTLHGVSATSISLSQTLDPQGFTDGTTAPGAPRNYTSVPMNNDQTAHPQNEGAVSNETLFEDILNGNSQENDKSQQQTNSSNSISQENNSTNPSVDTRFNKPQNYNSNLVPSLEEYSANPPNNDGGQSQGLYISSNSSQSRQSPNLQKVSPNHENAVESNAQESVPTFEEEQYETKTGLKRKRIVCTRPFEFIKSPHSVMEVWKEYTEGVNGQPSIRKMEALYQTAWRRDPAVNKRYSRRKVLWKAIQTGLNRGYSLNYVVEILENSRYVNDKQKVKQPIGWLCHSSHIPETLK
Experiment: PBM E-score (8-mer binding enrichment) (E-score (-0.5 to 0.5)); higher = stronger / more preferred TF binding; most listed sequences are background and not binding sites
Settings: protein concentration: 200 nM; construct: GST-full length
Procedure, shortened: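 E-scores (a modified Wilcoxon-Mann-Whitney statistic) were assigned by the Universal PBM Analysis Suite to every ungapped eight-base word pooled with its reverse complement. The input came from universal all-10-mer Agilent arrays made double-stranded by primer extension and probed with GST-tagged yeast transcription factors at about 100-200 nM. Fluorescent anti-GST detected bound protein, and masliner normalised the scans.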

| Sequence | PBM E-score |
| --- | --- |
| CCGATCGA | -0.0183 |
| GATAGAAA | -0.0663 |
| TCCCAGGA | -0.205 |
| GGCCCATA | -0.217 |
| GGACGCTA | -0.234 |
| AAGCTTGC | -0.0773 |
| CCGTAGAA | 0.0725 |
| ACCGCGAC | 0.301 |
| TTAAGAAA | 0.0709 |
| AAAAATAA | 0.191 |
| CCCGGTCC | -0.207 |
| CACGTGGG | -0.0886 |
| AGAAAATA | 0.147 |
| GCTCAAGC | -0.105 |
| ATTCCCGG | 0.175 |
| AGGTAGAG | -0.108 |
| CGGCAGTA | -0.103 |
| ACAGCGAC | -0.0767 |
| AATATTGC | 0.218 |
| CCTGAATA | 0.142 |
| CACACAGC | -0.0821 |
| CCTTGTCA | 0.0263 |
| AGCGCTCA | -0.229 |
| AAATGTGA | 0.0721 |
| AATGACGA | 0.101 |

| Sequence | PBM E-score |
| --- | --- |
| AGATACTG | 0.0276 |
| ACTCTCAC | -0.053 |
| CATAATAA | 0.14 |
| AATTGCGT | -0.035 |
| ACCGTATA | -0.183 |
| CAGAGGCA | -0.0621 |
| AGACGGAT | 0.115 |
| AAGCCGCT | -0.036 |
| ATAGAAAA | 0.0535 |
| GAACGCGA | -0.104 |
| CGAATTCG | -0.104 |
| ATATGTAC | 0.371 |
| CGCGCACC | -0.107 |
| AGAGCAGA | -0.202 |
| CGTCCAGA | 0.0189 |
| GCATATCC | -0.0414 |
| ATCGGATC | 0.148 |
| AGGCGTTA | -0.0699 |
| CAATCCAA | -0.059 |
| ACGTGTAC | 0.202 |
| CTCGCCGA | 0.0708 |
| AGTATAAT | 0.213 |
| TACTACCA | -0.283 |
| CAAAGATA | 0.075 |
| CCGTGCAG | -0.0768 |

| Sequence | PBM E-score |
| --- | --- |
| GACTACTC | -0.076 |
| CCGGACAC | 0.288 |
| ATCTTGCA | 0.0688 |
| GAAGCACC | -0.175 |
| AAAGTGTG | -0.0758 |
| AAAACTCC | -0.186 |
| CCAACACC | -0.277 |
| GTCGTAAA | 0.124 |
| AGAACAAT | 0.0106 |
| CGTATAGC | -0.0492 |
| ACCAAAGA | 0.205 |
| TAGCAATA | 0.111 |
| ATTGGGAG | -0.132 |
| CACTACTC | -0.0939 |
| ATGCACTG | -0.0723 |
| AATATTTA | 0.202 |
| TCCACACA | 0.0549 |
| AGATCGAC | 0.0865 |
| AAATTCGA | 0.0548 |
| GGCATTGA | -0.131 |
| GCCAAGGC | -0.272 |
| CAGTGTCG | 0.0205 |
| CTAAAAAG | 0.157 |
| CCAAATGA | 0.05 |
| CGAACGCC | -0.176 |

| Sequence | PBM E-score |
| --- | --- |
| AGCGGAAT | 0.0579 |
| GATCATTA | -0.0863 |
| AGCTGGGC | -0.242 |
| GCAGTCAA | -0.212 |
| AGTTACAG | -0.0292 |
| ACACGGTC | 0.106 |
| CACGATAG | 0.0475 |
| CCTTGGTA | 0.0834 |
| CACGTCGA | -0.00787 |
| AGGTAGGC | -0.145 |
| AGCACTAA | 0.00466 |
| CATTGAGG | -0.0435 |
| CGGGATTC | 0.239 |
| CTTTGGTC | 0.0752 |
| AACGCTAA | -0.0499 |
| AGTTCTCC | -0.205 |
| ATCCATGG | -0.271 |
| CTAAATCC | -0.0272 |
| GCTTGTAA | 0.0964 |
| GAGATCAA | 0.0466 |
| CTCACAAG | -0.182 |
| CGTATATA | 0.0622 |
| CCTATAGA | -0.00031 |
| CCCCGAAG | -0.00133 |
| AAGCTGAT | -0.024 |

| Sequence | PBM E-score |
| --- | --- |
| GAAGGGAC | 0.0623 |
| ATGTTTCA | 0.0348 |
| CCGGGACC | -0.159 |
| AAGACCAT | -0.0406 |
| GGATCAAA | 0.0767 |
| GACAGGTA | 0.138 |
| AGGGAGAG | -0.304 |
| GGATCGCC | -0.185 |
| AAAGACGA | 0.00839 |
| ACAAGTAC | 0.271 |
| CACAGCAC | -0.194 |
| AATTTTCG | 0.0628 |
| AGGACAAG | 0.472 |
| GGCTACAC | -0.121 |
| CCGCCATA | 0.0434 |
| CCCACTCC | -0.166 |
| AAGCCACA | -0.0893 |
| CATCTCCG | 0.129 |
| GCACACCA | -0.177 |
| ATTCTTCC | 0.0444 |
| TCGCGTCA | 0.113 |
| GTCCATTA | 0.3 |
| CCCGGAGC | 0.0826 |
| ATGTCTGC | 0.286 |
| GCACTATA | 0.0265 |

| Sequence | PBM E-score |
| --- | --- |
| AACGACCC | -0.178 |
| CAGATGGA | 0.133 |
| CGCGATAA | 0.0372 |
| AACAGGTC | -0.18 |
| TGACAGAA | 0.134 |
| ATGAAAAC | 0.226 |
| ACTACACA | 0.0685 |
| CTCCTAAG | -0.194 |
| GGGTGATA | -0.212 |
| CACAGACA | 0.36 |
| CCGATAAA | 0.197 |
| ATGCATTG | 0.0366 |
| AGGGGCCG | -0.335 |
| ATTACGCA | 0.0281 |
| CTATGCCC | -0.181 |
| AAACTGGG | -0.154 |
| GACCATCC | -0.268 |
| AAACCTCT | -0.185 |
| CGAGGTCC | -0.0236 |
| ATTCCATG | 0.194 |
| ACCTTGTC | 0.176 |
| AGAGTTCC | -0.075 |
| AGAGTCCG | 0.0522 |
| ACTCCGTG | 0.0483 |
| GATATACA | 0.0411 |

| Sequence | PBM E-score |
| --- | --- |
| GGAATTAC | 0.0804 |
| CGAGGCAC | -0.137 |
| CCGTAATA | -0.0337 |
| CTCGTTTC | 0.0421 |
| CGAGAGAA | 0.0189 |
| TACGTTGA | -0.0869 |
| CGCTCTCA | -0.22 |
| AATAGGAT | 0.157 |
| AGCTTCAA | 0.0517 |
| TAGTGTCA | 0.102 |
| AGAATCCT | -0.163 |
| AAGACAGC | -0.0127 |
| ATTCACCC | -0.0993 |
| ATTTTAAC | 0.0267 |
| TCCCGGAA | 0.198 |
| GAAATCGA | 0.0782 |
| CCCTTCGA | -0.188 |
| GTGGGGTA | -0.0896 |
| GAGGTTGC | -0.361 |
| AGAACTCC | -0.226 |
| TGTTCGAA | 0.112 |
| AACATGAA | -0.0316 |
